Experimental data: the supplement of paper PMC11417369
± gives the standard deviation of the averaged measurements. The list shows a part of the results.

Each sequence was assayed on PfAP2-I AP2 domain 3 (GST-tagged) (assay: gcPBM binding intensity (ln(normalized median fluorescence intensity)); higher = stronger DNA binding).
How it was run: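 For binding intensity, the highest Masliner-normalised natural-log median intensity across replicate spots of either probe orientation was taken. Protein bound to the array was stained with Alexa488 anti-GST antibody and scanned at 488 nm. The protein, GST-tagged P. falciparum DNA-binding domains from E. coli at about 25 μg on average, had been applied for 1 h to an Agilent 4 × 180k array of primer-extended double-stranded 36-bp intergenic genomic probes and negative controls.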

Sequence	gcPBM binding intensity (ln)
TTCATAGAATTATATATTTTAAAAAAAAAAATAATT [CACACA_negctrl_site175]	7.31 ± 0.38
TGTCAAAATATGTATACACACAATTTTTTTTTTTTT [CACACA_site2465]	7.62 ± 0.56
TTTTTCATAAGAAGCACACAAAAAATGATAGAGAAT [CACACA_site1417]	8.33 ± 0.68
TAATAAATAAAATAGAGTACAGGGATTTCATTAAAT [XGTACX_site8979]	7.92 ± 0.53
TATATTACTTATATTTGTACACAGAAATATAAATCA [XGTACX_site13]	7.75 ± 0.4
ACGTAATTAATTCATCAGATATAATTAATAATAATA [XGTACX_negctrl_site550]	7.54 ± 0.56
ATAAATTTTTTTTTTTTTTTTTTTCTTTTTCTTTGT [CACACA_negctrl_site1231]	7.24 ± 0.75
ACTAAAGTGTATCACTGTACAATTCTTCTCTTTTTT [XGTACX_site8705]	7.72 ± 0.64
AATATATTTGTGTATGTGCGCAGTGTGTAATTTATT [GTGCAC_site9765]	8.68 ± 0.52
CATCTCATATTTTGAAGTACTAAGAAAAGATATAAA [XGTACX_site6867]	7.78 ± 0.49
AGAAAAAAATAATGTACACACACATAGATGTTTATA [CACACA_site4271]	7.75 ± 0.41
TCAATAATAACAAATGAACACACATATATATGAGCA [CACACA_site8663]	7.44 ± 0.49
AAAAAAAAAAAAAAAAGTACACAGTAGAATTAAATG [XGTACX_site1843]	8.72 ± 0.39
GAACAATAAATAAAAAAAATAAAAATAAAAATAAAA [TGCATGCA_negctrl_site35]	7.75 ± 0.8
ATAAGTAAATTAGATACACACATGATATCATACATA [CACACA_site1623]	7.67 ± 0.55
TTTTTTTTTTAATTAACACACATAAATATATATATA [CACACA_site3275]	8.85 ± 0.13
TATATATATATTAATAGTACATATTATGTAAGCCTA [XGTACX_site2826]	8.845 ± 0.064
TTTTTTTTTTTTTTTGTGCACAATATAATTTTTAAT [GTGCAC_site9747]	10.9 ± 0.52
ATAAAACAAATGAGTACACACACATAAAAATTGAAA [CACACA_site7949]	8.08 ± 0.042
AAAAAATACATACATACACACATATATATATATATA [CACACA_site913]	9.57 ± 0.2
TCCTCTTATAATTCGTGTCCACATATATCATACAAT [XGTACX_site1523]	8.22 ± 0.33
TACGGATATATATATTGTACATATATATAATATATA [XGTACX_site3156]	7.71 ± 0.33

Sequence	gcPBM binding intensity (ln)
TTATTCATAAAAACAAAAAACAAAAATGAAATAGGA [CACACA_negctrl_site1123]	7.83 ± 0.57
TATGATATAATATACACACATACATATATATATATA [CACACA_site510]	9.13 ± 0.52
TTAATATTTTATTTCACACACATAAATGCCCCAAAC [CACACA_site1887]	9.45 ± 0.15
AGAGTTCTCCTATGCACACAAAAAACTTTCATTTAT [CACACA_site4193]	8.62 ± 0.43
TATTATGTCTAAAATAACATATTAATATATTATTTC [CACACA_negctrl_site285]	7.46 ± 0.49
CATCATATAAATTCAAGTACAAGAAAAAGTAATATA [XGTACX_site2383]	7.68 ± 0.49
AAATAATTTTTATTTGTACACACATACATATATATT [CACACA_site8240]	7.79 ± 0.53
TAAATAAAGATATATACACACATATTTATATTTATA [CACACA_site6431]	7.31 ± 0.54
ATATCTACTTTTTTATGTACGAAAAAAATACGGATT [XGTACX_site8937]	7.92 ± 0.46
ACAAAATTGAAATTCACACAAAAACTATACTTTTTA [CACACA_site4638]	7.37 ± 0.52
TTTAAGCAAAGACACACACACATATTTATATTTATA [CACACA_site6295]	7.69 ± 0.49
AAACATTTATACAAAGCACACAATTTTTAACTTTTA [CACACA_site2627]	8.22 ± 0.3
AATAAAAAAAAAAAAAAAAAAAAAAACCTGAGGAGT [CACACA_negctrl_site1140]	7.59 ± 0.71
AACCTTTTAAGAGTTGCACACGTACAAAAAAAAAAA [CACACA_site9159]	8.61 ± 0.47
TATATTAAACAATATACACACATTAATGTAGACATA [CACACA_site8889]	7.7 ± 0.46
TTATAATATATATCTGCATGTTGCTTTGGGGCTTTA [TGCATGCA_site712]	7.84 ± 0.77
GAAAATTCTTAAGGCACACACATATAAGATATATAC [CACACA_site6410]	9.88 ± 0.22
TTTCAGACAAAAAAAAAAAAAAAAAAGAGGAGAATA [CACACA_negctrl_site254]	7.47 ± 0.29
CCACTTGTGTAATGTTGTACAAAAATAAATATATTT [XGTACX_site4598]	7.84 ± 0.52
CTATGAACACACACATGTACATATATTAACTCGCTA [XGTACX_site8805]	7.93 ± 0.43
ATAATTAAAAATAATATATATATAATATGATATTAT [GTGCAC_negctrl_site194]	7.33 ± 0.46
TACACATACAGACATACACACATACACATATACACA [CACACA_site6918]	8.04 ± 0.18

Sequence	gcPBM binding intensity (ln)
AAAAAAAAAAAAAACACACACACACGCACATATACA [CACACA_site7288]	8.48 ± 0.57
TTTTTTCTTTTTTTTTTTAATTATAAACATGATATT [GTGCAC_negctrl_site144]	7.46 ± 0.36
TAAATATATATAACATGTACATAAAATATATATATA [XGTACX_site4431]	8.85 ± 0.27
TATCTTCATTGTTGACGTACAGTATTTCTAAACGTT [XGTACX_site3439]	8.11 ± 0.29
TACATATTTTATAGCACACAAATAATAATATGTAGT [CACACA_site688]	8.775 ± 0.021
TTTTTGTTAAAATAAATATTATAAATATATTAATAT [TGCATGCA_negctrl_site239]	7.28 ± 0.18
AAAAAAAAAAAAATGTGGACACAATTGTGTGTTTGT [XGTACX_site3563]	7.97 ± 0.61
GTTGTGGAAAGAAGTTGTACATAAAATATTATATAA [XGTACX_site4352]	7.92 ± 0.49
AGGCCTTTTAGTATTTCACACACGTAAATGCGTATA [CACACA_site1108]	9.04 ± 0.79
CATAAAAATGAACATACACACATATATATATATATA [CACACA_site2498]	9.33 ± 0.51
TTGCTTTCTTTTTTTTGTACTCATATCTACTATCAT [XGTACX_site7711]	8.17 ± 0.78
CGAGCAAGACGGGGTGCACACAAACTAATATGCCGA [CACACA_site7936]	10.7 ± 0.59
TACCTTTATTAATAAAGTACATTAATCTGTGTATAC [XGTACX_site8720]	7.71 ± 0.44
ATTATTATGTAGAAGGTGCTATGTTCTATAAATATA [GTGCAC_site9545]	8.31 ± 0.35
AAATATAAAAAAAAAAGTACTTTGTTACTTTTCTAT [XGTACX_site6034]	7.35 ± 0.49
TTTTTATTAAATAAAGCACACACAACAACTTTTCAC [CACACA_site9372]	9.275 ± 0.021
AACTGCAAAAAAAGACGTACAAATTATTAATTGCAA [XGTACX_site8929]	8.13 ± 0.78
TAACCATAAGAAGATTGTACATAATAAAAGTATTCT [XGTACX_site1117]	7.67 ± 0.7
AAAATAAATATAACCACACACGAAAGAGAGAGAAAA [CACACA_site3272]	7.83 ± 0.79
ATATATATATATATATGTACATACCCAATTGTGTAA [XGTACX_site6352]	9.47 ± 0.36
ATTTAAAATGGTTATACACACATAAAAGGGGAAATG [CACACA_site2649]	8.15 ± 0.72
TACAGACATACATACACACATACATATATATATATA [CACACA_site1940]	9.27 ± 0.38

Sequence	gcPBM binding intensity (ln)
ATACAAATTAAGCCTCAAGTTCTTTTTTTTAACATA [XGTACX_negctrl_site580]	7.65 ± 0.55
ATATAACATGGACACACACACATATATATATATTAT [CACACA_site6135]	8.14 ± 0.5
GGTGCACCCATATACACACACAAATACAATGATAAA [CACACA_site1132]	9.99 ± 0.56
AAAAAAAAGAATTATTGTACAAAAGAACAATAAATA [XGTACX_site1368]	7.25 ± 0.26
GTGAAATTATATTTTTGTACATATATTATATATTAT [XGTACX_site3387]	7.76 ± 0.38
ATCGAAGGGGTACAAAATAAAAATAATTCTTTCAAA [TGCATGCA_negctrl_site373]	8.145 ± 0.035
GTATATATCTAAAAATATATATATATATATATATAT [CACACA_negctrl_site788]	9.37 ± 0.72
AAGTGTTATGAAATATGTACACATATATTATATATA [XGTACX_site6022]	7.84 ± 0.32
TATAAATAAATATGGAGTACCAAAAAAATTATAAAA [XGTACX_site7581]	7.81 ± 0.58
TACAAATGAGAAATATGTACATAAAAAAAAAAAAAT [XGTACX_site801]	7.95 ± 0.43
TTGTTCTTTCAAATTATACACACCAAAAAAAAAAAA [CACACA_site3070]	7.97 ± 0.4
AATATAAATAAAAAATTGATTTCTTTAAAAAGGTAT [CACACA_negctrl_site1038]	7.59 ± 0.64
TAATCATAAAAAAATACACACATATATAATATATAT [CACACA_site1983]	7.73 ± 0.44
ATACAAAATCTAATTTGTACACAATGTTTGATTTTT [XGTACX_site5438]	7.63 ± 0.47
TATCCATATTTGTTCACACACACACCCATTTATATA [CACACA_site3571]	8.15 ± 0.76
ATTTTTATGTTGAAAAGTACTTGAATCCCATGTAAC [XGTACX_site4453]	7.91 ± 0.43
TTCTTTTTTTTTAAAACAAACAAACAAACAAACAAA [CACACA_negctrl_site832]	7.76 ± 0.59
TATTTATTTATTTAGTGTACATTTATATTTGTTCAT [XGTACX_site7575]	8.03 ± 0.4
TTAATCTTTCCTACATGTACACACAGAAAAAAAAAA [XGTACX_site5213]	8.14 ± 0.34
TATAGGTAAATGGACACACACATATTTATATTTATA [CACACA_site7683]	7.75 ± 0.53
TGTAGTCTGGAGAAGAGTACATAGTATCTGGTAACA [XGTACX_site4944]	7.58 ± 0.69
